Measurements from PubChem BioAssay AID1671188 (National Center for Advancing Translational Sciences (NCATS), 2021).
Screen size: about 100,000 compounds; about 250 (0.25%) were called active. The inconclusive results got no clear call from the source; some entries with a clear call stand among them for comparison. The call rests on the fitted dose curve; in most records, active means well fitted inhibition curve with a large enough effect; inconclusive means small, poorly fitted or top-dose-only effect; inactive means flat fitted curve, though single readings scatter. No potency is given beside an inconclusive call; the fits are too rough.

Target: Alanine aminotransferase 2 (Homo sapiens) (UniProt Q8TD30)
Assay: Primary qHTS assay for inhibitors of Glutamate pyruvate transaminase 2 (GPT2); further: nearly all actives have a fitted effect of over 60% in size
Conditions: Recombinant GPT2, coupled pyruvate oxidase/HRP Amplex Red fluorescence; series mostly up to 57.7 µM
Outline: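 Inhibition is scored from Amplex Red fluorescence generated when pyruvate oxidase and HRP act on pyruvate released by GPT2. Reactions contain 10ng/uL enzyme, 250uM a-KG and 2mM L-alanine and run 30 min at room temperature.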
Potency means the concentration at half of the fitted maximal effect; tags describe the fitted curve by direction and shape.

Sequence of UniProt Q8TD30 (Q8TD30 whole entry, looked up): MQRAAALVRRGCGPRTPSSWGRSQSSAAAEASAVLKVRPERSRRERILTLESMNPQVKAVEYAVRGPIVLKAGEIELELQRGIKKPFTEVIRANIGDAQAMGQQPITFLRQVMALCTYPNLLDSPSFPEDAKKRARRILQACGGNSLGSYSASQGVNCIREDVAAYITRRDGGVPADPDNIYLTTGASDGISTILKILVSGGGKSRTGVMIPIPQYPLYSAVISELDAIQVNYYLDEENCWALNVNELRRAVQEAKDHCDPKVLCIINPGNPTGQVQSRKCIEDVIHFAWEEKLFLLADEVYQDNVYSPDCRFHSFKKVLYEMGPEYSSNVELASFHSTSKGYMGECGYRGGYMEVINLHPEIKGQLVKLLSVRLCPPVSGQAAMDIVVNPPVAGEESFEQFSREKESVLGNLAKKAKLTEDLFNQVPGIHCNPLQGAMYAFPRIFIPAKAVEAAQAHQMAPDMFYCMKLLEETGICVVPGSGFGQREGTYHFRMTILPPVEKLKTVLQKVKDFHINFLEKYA

Compound	Potency
CCOC(=O)C1=C(C)N=C2SC=C(CC(=O)Nc3ccc(OC)cc3)N2C1c1cccc(OC)c1 (configuration not stated)	inactive
O=C(NCCc1ccccc1F)C1CCc2nnc(-c3cccc(C(F)(F)F)c3)n21 (configuration not stated)	inactive
COc1cccc(-c2cccc(C(=O)N3CCCC3C(=O)NCc3ccc(F)cc3)c2)c1 (configuration not stated)	inactive
O=C(NCC1CC1)c1noc(-c2ccccc2F)n1	inconclusive [inhibitor, single point]
Cn1ncc2c(C(=O)Nc3cncnc3)cc(-c3ccc(Cl)cc3Cl)nc21	inconclusive [inhibitor, single point]
O=C(NCCc1ccccc1)C1CCc2nnc(-c3cccc(C(F)(F)F)c3)n21 (configuration not stated)	inactive
O=C(NCCc1ccccc1)C1CCCN(Cc2cccc(-c3cccs3)c2)C1 (configuration not stated)	inactive
O=C(CN1C(=O)NC(c2ccc(Cl)cc2)C2=C1COC2=O)Nc1ccc(Br)cc1F (configuration not stated)	inactive
OCc1cccc(-c2ccc3ncc(Nc4cccnc4)n3n2)c1	inconclusive [inhibitor, partial curve, poor fit]
COc1ccc(CC(=O)N2CCCN(c3cc(-c4ccccc4)[nH]n3)CC2)cc1OC	inconclusive [inhibitor, partial curve, poor fit]
Fc1ccc(CN2CC[C@H](c3nc4ccc(C(F)(F)F)cc4[nH]3)C2)cc1F	inconclusive [inhibitor, full curve, poor fit]
Cc1ccc(-c2noc([C@@H]3C[C@@H](O)CN3Cc3nc4ccccc4n3C)n2)cc1F	inactive
CCn1cc(-c2ccc(OC)cc2)cc1C(=O)NCC(=O)OC	inconclusive [inhibitor, partial curve, poor fit]
O=C(C1CCCN1c1nccc(Nc2ccccc2F)n1)N1CCC(Cc2ccccc2)CC1 (configuration not stated)	inactive
COCc1cc(CC2(NCc3ccc(CO)o3)COC2)no1	inconclusive [inhibitor, partial curve, poor fit]
C=CCn1c(=O)c2c(nc(-c3ccc(S(=O)(=O)O)cc3)n2C)n(C)c1=O	inactive
CC(=O)Nc1ccc(-c2c(C3CC3)nn(-c3cccc(C)c3)c2OC(C)=O)cc1	inconclusive [inhibitor, partial curve, poor fit]
Cc1noc(C)c1-c1cc2cc(C(C)C)oc2c(NCCN(C)C)n1	inactive
COc1ccc(CN2Cc3[nH]cnc3C[C@H]2C(=O)NCc2ccc(Cl)cc2)c2ccccc12	inconclusive [inhibitor, full curve, poor fit]
Cc1ccc([S+](=O)([O-])N2CCCC2C(=O)N2CCC(N3Cc4ccccc4C3=O)CC2)cc1 (configuration not stated)	inactive
COC(=O)[C@@H]1Cc2ncn(Cc3ccc(OC)cc3)c2CN1S(=O)(=O)c1ccc(OC)cc1	inactive
Cc1cccc(-c2ccc(CN)cc2)c1	inactive
Cc1ccc(S(=O)(=O)NC(=O)NN2CCCCCC2)cc1	inconclusive [inhibitor, single point]

Compound	Potency
O=C1CN(Cc2cccs2)CCN1c1ccc(Cl)nn1	inconclusive [inhibitor, partial curve, poor fit]
COc1ccc(CCC(=O)N2CCC3(CC2)NC(=O)N(c2cccc(F)c2)N3)cc1	inconclusive [inhibitor, single point]
COc1ccc(Cl)cc1-c1nc(-c2nnn3c2COC(c2ccc(C)cc2)C3)no1 (configuration not stated)	inconclusive [inhibitor, single point]
COCCc1noc([C@@H]2CC(F)(F)CN2C(=O)c2ocnc2C)n1	inactive
COCc1ccc(C(=O)N2CCCC(CCc3cccc(OC)c3)C2)o1 (configuration not stated)	inactive
COCC1(C(=O)N2CCN(C)C3(CCNC(=O)CC3)C2)CCC1 (configuration not stated)	inconclusive [inhibitor, full curve, poor fit]
COc1cc(C)ccc1OCC(=O)c1ccc2c(c1)N(CC(=O)N1CCCC1)C(=O)CO2	inactive
O=C1CCN(C(=O)[C@@H]2CCCN2Cc2cccc(OC(F)(F)F)c2)CCCCCCN1	inconclusive [inhibitor, single point]
CNCc1cccc(Oc2ccccc2)c1	inconclusive [inhibitor, full curve, poor fit]
Cn1cnnc1CC1CCN(C(=O)c2cn3ccsc3n2)CC1	inconclusive [inhibitor, single point]
CCOC(=O)C1(Cc2ccc(OC)cc2)CCN(C(=O)CCc2ccccc2OC)CC1	inconclusive [inhibitor, single point]
Cc1nc(CN2CCOC3(CCN(Cc4ccccc4Cl)CC3)C2=O)cs1	inconclusive [inhibitor, single point]
O=C(c1c(OCC2CC2)cc(=O)n2c1CCOCC2)N1CCCCCC1	inconclusive [inhibitor, single point]
COc1ccc(N2CC3CCC(C2)N3Cc2ccc(Cl)cc2)cc1	inconclusive [inhibitor, single point]
CCN(C(=O)Cn1ccn2nc(-c3ccccc3)c(CO)c2c1=O)c1ccccc1	inconclusive [inhibitor, single point]
O=C(c1ccccc1F)N1CCC2(CC1)Cc1ccccc1NC2=O	inactive
CC(C)(C)CC(C)(C)c1ccc(O)c(Cc2ccc(Cl)cc2Cl)c1	inconclusive [inhibitor, full curve, poor fit]
O[C@@H]1CN(CC2CCNCC2)CC[C@H]1c1ccc2ccccc2c1	inactive
COc1ccc2nc3n[nH]c(C)c3c(NCCOCCO)c2c1	inconclusive [inhibitor, single point]
Cn1ncc2c(N[C@H]3C[C@H]4C(=O)NCC(=O)N4C3)nc(C3CCCC3)nc21	inconclusive [inhibitor, single point]
O=C(Nc1ccccc1)c1cnc2n1CCN(Cc1cccc(OC(F)(F)F)c1)CC2	inactive
CC(C)(CC(=O)O)CC(=O)N1Cc2[nH]cnc2C[C@H]1c1nc(-c2ccc3c(c2)OCO3)no1	inconclusive [inhibitor, single point]
COc1ccc(NC(=O)N2CCC3(CC2)SCC(=O)N3Cc2ccco2)c(OC)c1	inconclusive [inhibitor, single point]

Compound	Potency
O=C(COc1ccccc1)N1CCC2(CC1)NC(=O)N(c1cccc(F)c1)N2	inconclusive [inhibitor, single point]
COc1ccc(-c2cc3nc4c(c(=O)n3[nH]2)CN(C(=O)Cc2ccc(NC(C)=O)cc2)CC4)cc1	inconclusive [inhibitor, single point]
Cc1ccc2c(C(=O)NCc3cccc(Cl)c3)cc(NC(=O)C(C)C)cc2n1	inactive
CCCCCCCCCCCCc1ccc(S(=O)(=O)Nc2nncs2)cc1	inconclusive [inhibitor, full curve, poor fit]
O=C(NCc1ccc(C(F)(F)F)cc1)C1CN(c2ccc(Cl)cc2)C(=O)N1 (configuration not stated)	inconclusive [inhibitor, single point]
O=C(Cc1ccccn1)NC1CCN(Cc2cccc(-c3ccc(F)c(F)c3)c2)CC1	inconclusive [inhibitor, single point]
COc1cccc(CCC(=O)N2CCC3(CC2)NC(=O)N(c2cccc(F)c2)N3)c1	inconclusive [inhibitor, single point]
CN(C)c1cccc(C(=O)NCC2CCN(c3cc(-c4ccc(F)cc4)[nH]n3)CC2)c1	inconclusive [inhibitor, single point]
Cc1cc2nc3n(c(=O)c2n1CC(=O)Nc1cccc(C(F)(F)F)c1)CCC3	inconclusive [inhibitor, single point]
O=C(Cn1cccc1-c1nc(-c2ccc3c(c2)OCO3)no1)NCCc1ccccc1	inconclusive [inhibitor, single point]
COc1ccccc1Nc1ccnc(N2CCCC(C(=O)NC3CCC3)C2)n1 (configuration not stated)	inactive
O=C(c1ccccc1F)N1CCCN(c2cc(-c3ccccc3)[nH]n2)CC1	inconclusive [inhibitor, partial curve]
Cn1c(Cn2cccn2)nnc1C1CC(NC(=O)c2sccc2N)C1 (configuration not stated)	inconclusive [inhibitor, single point]
NC(=O)[C@@H]1CN(Cc2ccccn2)C[C@H]1COc1ccccc1	inconclusive [inhibitor, partial curve, poor fit]
CCOc1ccc2nc3cc(N)ccc3c(N)c2c1	inconclusive [inhibitor, single point]
COc1ccnc(N2CC[C@H](c3nnc(-c4ccc(N(C)C)cc4)o3)C2)n1	inactive
CO[C@H]1[C@H](NC(=O)c2cc(CC(C)C)no2)c2ccccc2C12CCNCC2	inconclusive [inhibitor, single point]
O=C(C1CCCN1C(=O)c1ccccc1F)N1CCC(N2Cc3ccccc3C2=O)CC1 (configuration not stated)	inactive
O=C(c1ccc(Cl)cc1)N1CCCC(c2nn(-c3ccc(F)cc3)c(=O)[nH]2)C1 (configuration not stated)	inconclusive [inhibitor, single point]
O=C(NCCN1CCOCC1)C1CC(=O)N(c2n[nH]c3ccccc23)C1 (configuration not stated)	inconclusive [inhibitor, single point]
COc1cc(F)ccc1-c1nc(-c2c(C)noc2C)cc2cc(C)oc12	inconclusive [inhibitor, single point]
